According to PubChem BioAssay AID360 (National Center for Advancing Translational Sciences (NCATS), 2006):
Among all 48,000 compounds or so, about 550 (1.1%) were called active. Another 4% or so got no clear call; they are omitted. Cut-off read from the data, not from the text of the source: active = potency below about 15 µM; inconclusive = mostly about 16 µM to 33 µM; inactive = weaker than that. The list shows a part of the results.

target: Lysosomal acid glucosylceramidase (Homo sapiens) (UniProt P04062); assay: Glucocerebrosidase; details: purified enzyme, resorufin glucoside fluorescence (screen aimed at inhibitors), 20 min;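 note: the screen sought inhibitors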
Sequence of UniProt P04062 (P04062 whole entry, looked up): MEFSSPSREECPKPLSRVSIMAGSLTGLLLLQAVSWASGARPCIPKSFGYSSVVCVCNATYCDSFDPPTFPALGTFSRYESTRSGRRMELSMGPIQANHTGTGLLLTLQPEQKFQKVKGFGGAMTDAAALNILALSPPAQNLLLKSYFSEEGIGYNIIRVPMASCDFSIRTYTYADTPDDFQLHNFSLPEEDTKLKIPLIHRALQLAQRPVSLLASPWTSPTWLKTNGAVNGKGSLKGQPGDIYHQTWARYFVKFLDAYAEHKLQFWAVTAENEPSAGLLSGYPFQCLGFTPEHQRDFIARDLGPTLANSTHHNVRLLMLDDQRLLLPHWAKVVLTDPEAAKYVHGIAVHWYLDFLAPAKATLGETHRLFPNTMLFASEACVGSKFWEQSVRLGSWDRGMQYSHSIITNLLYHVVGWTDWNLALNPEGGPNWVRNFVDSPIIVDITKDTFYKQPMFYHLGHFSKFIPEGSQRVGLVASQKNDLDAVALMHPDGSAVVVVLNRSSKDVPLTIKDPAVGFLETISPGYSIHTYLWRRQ
Procedure, shortened: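 Wild-type enzyme at 0.2 nM final in 50mM citric acid/KH2PO4, 10mM sodium taurocholate, 0.01% tween-20, pH 5.9, with resorufin beta-D-glucopyranoside at 30 uM final. Compounds titrated, 20 min at RT, red fluorescence read; AC50 from titration.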
Potency is the fitted concentration of half-maximal effect.

Potency, inactive:
CC(C)c1nc2sc3c(SCC(=O)NCc4ccco4)ncnc3c2c2c1CCC2 > 76.9 µM
CCOC(=O)N1CCC(NC(=O)C2CCCN2C(=O)OCc2ccccc2)CC1 (stereo not given)
O=c1cc(-c2ccccc2)nc2nc(-c3ccccc3)[nH]n12 > 76.9 µM
O=C(c1cc(-c2ccco2)on1)N1CCCc2ccccc21
FC(F)(F)c1cc(-c2ccco2)nc(-n2nc(C(F)(F)F)cc2C2CC2)n1 > 76.9 µM
O=C(c1ccc2c(c1)OCO2)N1CCNc2ccccc2C1 > 76.9 µM
Cc1ccccc1NS(=O)(=O)c1ccc(C2CNC(=O)C2)cc1 (stereo not given) > 76.9 µM
CCOC(=O)N1CCC(NCCNC(=O)c2cccs2)CC1 > 76.9 µM
O=c1n(Cc2ccc(Cl)cc2)c2sc3c(c2c2ncnn12)CCCC3 > 76.9 µM
COc1ccc(C(=O)N2CCCC(c3nc(-c4ccc(OC)c(OC)c4)no3)C2)c(OC)c1 (stereo not given) > 76.9 µM
COCCCNC(=O)c1cc(OC)c(OC)c(OC)c1 > 76.9 µM
CC(C(=O)N1c2ccc(F)cc2CCC1C)N1C(=O)c2ccccc2C1=O (stereo not given) > 76.9 µM
CCOC(=O)COc1ccc(Cl)cc1C1NC(=O)NC(C)=C1C(C)=O (stereo not given) > 76.9 µM
CSc1nsc(SCCN2C(=O)c3ccccc3C2=O)n1 > 76.9 µM
O=C(N1CCOCC1)N1CCC(n2nnc3cc(F)ccc32)CC1 > 76.9 µM
Cc1occc1C(=O)Nc1nccs1 > 76.9 µM
CCOC(=O)C1CCCN(c2cc(C)nc3cc(-c4ccc(F)cc4)nn23)C1 (stereo not given) > 76.9 µM
COc1ccc2[nH]c(=O)c(CN(Cc3cccs3)S(=O)(=O)c3cccc4nsnc34)cc2c1
CC(=O)Nc1ccc(NC(=O)Oc2ccccc2)cc1 > 76.9 µM
Cc1ccc(NC(=O)CN(C)C(=O)CCCN2C(=O)c3ccccc3C2=O)cc1 > 76.9 µM
CCOC(=O)Nc1ccc2c(c1)Nc1ccccc1S2 > 76.9 µM
O=C(c1ccc(N2C(=O)CCC2=O)cc1)N1CCN(c2ccccc2)CC1 > 76.9 µM
CCOc1ccc(C(=O)Nc2ccc(NC(=O)c3ccco3)c(Cl)c2)cc1Br > 76.9 µM
CCOc1ccccc1C(=O)NC1CCN(Cc2nnnn2C2CCCC2)CC1 > 76.9 µM
CSc1nc(-c2ccco2)nn1S(=O)(=O)c1ccccc1 > 76.9 µM
CCOC(=O)c1cnn(-c2cc(C)nc3c(-c4ccccc4)cnn23)c1N > 76.9 µM
Cc1ccc(C)c(NC(=O)CSc2nnc(CCCCCNC(=O)OC(C)(C)C)o2)c1 > 76.9 µM
O=C(c1ccco1)N1C2C=CC(C2)C1(C(F)(F)F)C(F)(F)F (stereo not given) > 76.9 µM
CCn1c(NCc2cccc(OC)c2OC)nc2ccccc21 > 76.9 µM
COC(=O)CSc1nnc(CNC(=O)c2ccccc2OC)n1C > 76.9 µM
Cc1cc2cc(CN(CCN3CCOCC3)C(=O)Nc3ccccc3F)c(=O)[nH]c2cc1C > 76.9 µM
CCCn1c(=O)c(C(=O)NCc2ccc(OC)c(OC)c2)c(O)c2ccccc21 > 76.9 µM
CCOC(=O)CSc1nc2c(c(=O)n(Cc3ccccc3Cl)c(=O)n2C)n1C > 76.9 µM
CCn1c(SCC(=O)Nc2cccc(NC(=O)c3ccco3)c2)nnc1-c1cccs1 > 76.9 µM
COC(=O)C(C)Sc1nc2c(cnn2-c2ccc(C)cc2)c(=O)[nH]1 (stereo not given) > 76.9 µM
O=C(c1ccc(S(=O)(=O)N2CCCCCC2)cc1)N1CCN(c2ccccn2)CC1 > 76.9 µM
Fc1cccc(CSc2ncnc3c2oc2ccccc23)c1 > 76.9 µM
Cc1cc(NC(=O)c2cc(-c3cccs3)on2)nn1Cc1ccc(Cl)cc1 > 76.9 µM
CCOC(=O)c1sc2ncnc(OC)c2c1C > 76.9 µM
O=C(C1=C(O)C(=O)N(CCOCCO)C1c1cccs1)c1cccs1 (stereo not given) > 76.9 µM
Cn1c(SCc2nc(-c3cccs3)no2)nnc1C1CCCCC1 > 76.9 µM
COc1cc(N2C(=O)NC3CC2(C)Oc2ccc(Br)cc23)cc(OC)c1OC (stereo not given) > 76.9 µM
CC(C)CC(c1nnnn1Cc1ccccc1)N1CCN(C(=O)c2ccco2)CC1 (stereo not given) > 76.9 µM
c1csc(CN2CCN(Cc3cccs3)C2c2cccs2)c1 > 76.9 µM
O=C(O)C1(c2cccc(Cl)c2)CCC1 > 76.9 µM
O=C(CCC(=O)N(CC(=O)NC1CCCC1)C1CCCC1)Nc1ccccn1 > 76.9 µM
CN(C)c1oc(COc2ccc(F)cc2)nc1C#N > 76.9 µM
O=C(OC(C(=O)NC1CCCC1)c1ccccc1F)c1ccco1 (stereo not given) > 76.9 µM
CCn1c(SCC(=O)N2CCCc3ccccc32)nc2c1c(=O)n(C)c(=O)n2C > 76.9 µM
O=C(NC1CC1)c1ccc(S(=O)(=O)NCC2CCCCC2)cc1 > 76.9 µM
COC(=O)C(CC(C)C)NC(=O)CSc1nc(-c2ccccc2)c(C#N)c(=O)[nH]1 (stereo not given) > 76.9 µM
Cc1ccc2cc3cc(C(=O)NCc4ccco4)oc3nc2c1 > 76.9 µM
Cc1cc2ccccc2c(=O)n1CC(=O)NCC(=O)N1CCN(c2ccccc2F)CC1 > 76.9 µM
O=C(c1cc2ccccc2oc1=O)N(Cc1ccco1)Cc1cccs1 > 76.9 µM
COc1ccc(NC(=O)c2cc(-c3ccc(C)o3)nc3ccccc23)cc1OC > 76.9 µM
O=c1c2cc3c(=O)n(CC4CCCO4)c(=O)c3cc2c(=O)n1CC1CCCO1 (stereo not given) > 76.9 µM
O=C(c1ccc(C(=O)N2CCN(c3ccccc3F)CC2)nc1)N1CCN(c2ccccc2F)CC1 > 76.9 µM
Cc1cccc(OCCCC(=O)Nc2nccs2)c1 > 76.9 µM
CCCCN(Cc1cc2cc(OC)ccc2[nH]c1=O)C(=O)COc1ccccc1 > 76.9 µM
Cc1cc(F)ccc1S(=O)(=O)Nc1ccccc1C(=O)Nc1ncn[nH]1 > 76.9 µM
Cc1ccc(NC(=O)c2ccccc2)s1 > 76.9 µM
CCOC(=O)N1CCN(S(=O)(=O)c2cc(OCC)ccc2OCC)CC1 > 76.9 µM
CCOC(=O)C1=C(C)NC(=O)NC1c1ccco1 (stereo not given) > 76.9 µM
Cc1cccc(-c2nsc(SCC(=O)Nc3cc(C)on3)n2)c1 > 76.9 µM
Cn1c(=O)c(C(=O)c2ccccc2)nc2ccccc21 > 76.9 µM
CCCC(=O)Nc1nc2ccc(NC(=O)c3ccc(Br)o3)cc2s1 > 76.9 µM
FC(F)(F)c1cc(-c2ccco2)nc(NCc2cccs2)n1 > 76.9 µM
COc1ccc(NC(=O)N(CCO)Cc2cc3c(C)cc(C)cc3[nH]c2=O)cc1 > 76.9 µM
COc1ccccc1N1CCN(C(=O)CSc2nnc(-c3ccoc3C)o2)CC1 > 76.9 µM
Oc1ccc(Cl)cc1CNCC1CCCO1 (stereo not given) > 76.9 µM
O=S(=O)(NC1CCCCC1NS(=O)(=O)c1ccc(F)cc1)c1ccc(F)cc1 (stereo not given) > 76.9 µM
Cc1ccc(N2C(=O)[C@@H]3Cc4ccccc4CN3C2=O)cc1 > 76.9 µM
Cc1onc(-c2c(F)cccc2Cl)c1C(=O)Nc1cccc(Cn2cccn2)c1 > 76.9 µM
Cc1ccc(-c2c(C)n([O-])c3c([n+]2=O)CCC3)o1 > 76.9 µM
CS(=O)(=O)c1ccc(Cl)c(NC(=O)COC(=O)CNC(=O)c2ccc(Br)o2)c1 > 76.9 µM
O=C(Nc1ccccc1)N(C1=NCCCCS1)c1ccccc1 > 76.9 µM
CN(Cc1nc(-c2ccccn2)no1)S(=O)(=O)c1ccc(Cl)cc1 > 76.9 µM
COC(=O)C1C(=O)C2=C(CC1C)NC(=O)CC2c1cccc(C)c1 (stereo not given) > 76.9 µM
Cc1ccc2[nH]c(=O)c(C(c3nnnn3CC3CCCO3)N3CCCc4ccccc43)cc2c1 (stereo not given) > 76.9 µM
COc1cc2c(cc1OC)C(C(=O)N1CCN(c3ccccn3)CC1)C(c1cccs1)N(C)C2=O (stereo not given) > 76.9 µM
Cc1cc(C)n(/N=C/c2ccccc2)c(=O)c1C#N > 76.9 µM
Cc1noc(C)c1COC(=O)Cc1ccc(Cl)c(Cl)c1 > 76.9 µM
CCc1ccc(C(C)NC(=O)c2cc(C)oc2C)cc1 (stereo not given) > 76.9 µM
O=S(=O)(Nc1ccc2c(c1)oc1ccccc12)N1CCCC1 > 76.9 µM
Cc1cc(C(=O)Oc2ccccc2C(=O)O)c(C)o1 > 76.9 µM
Cn1c(SCc2cc(=O)n3cc(Br)ccc3n2)nnc1C1COc2ccccc2O1 (stereo not given) > 76.9 µM
CCOc1ccccc1N(C(=O)c1snc(C(N)=O)c1N)C(C(=O)NC1CCCC1)c1ccco1 (stereo not given) > 76.9 µM
CCCS(=O)(=O)NCc1ccc2c(c1)cc(C)n2C > 76.9 µM
COc1ccccc1Nc1nc(N)nc(CSCCO)n1 > 76.9 µM
COCC(C)n1c(C)cc(C(=O)COC(=O)c2c(NC(C)=O)sc(C)c2C)c1C (stereo not given) > 76.9 µM
